From PubChem BioAssay AID504832 (National Center for Advancing Translational Sciences (NCATS), 2011)
About 18,000 (5.8%) of roughly 310,000 compounds were called active. The shares of active, inactive and inconclusive entries below differ from those in the screen. Calls follow the shape of the dose curve; as a rule, active = well fitted inhibition curve with a large enough effect; inconclusive = small, poorly fitted or top-dose-only effect, or another doubt; inactive = no such curve, though single readings can be large or run the other way. No potency is given beside an inconclusive call; the fits are too rough.
Potency is read from the fitted curve at half-maximal effect; tags tell the direction and shape of the fitted curve.

Experiment: Primary qHTS for delayed death inhibitors of the malarial parasite plastid, 48 hour incubation
Settings: P. falciparum luciferase growth in erythrocytes; series mostly up to 28.7 µM
Method in brief: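 Read-out is firefly luciferase luminescence from an integrated reporter in P. falciparum, so falling signal marks reduced parasite growth. Infected erythrocytes were at 2% hematocrit and 0.1% parasitemia (final) in Albumax-supplemented RPMI 1640.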
In the case of COc1ccc(-n2c(=S)[nH]c3cc(C(=O)NCCCN4CCOCC4)ccc3c2=O)cc1OC, the Potency is reported as “inactive”.
In the case of O=C1C2C(c3ccccc3)CC=CC2[C@H](c2cccc([N+](=O)[O-])c2)N1Cc1ccccc1 (some centres undefined), the Potency is reported as inconclusive [inhibitor, single point].
For Cn1c(SCc2ccc(Cl)cc2)nnc1C1CC1, the Potency was “inactive”.
With CC(=O)C1C(c2ccc(F)cc2)c2c(noc2C)CC1(C)O (centres undefined) the Potency was “inactive”.
In the case of CC1Cc2cc(S(=O)(=O)N3CCC(C(=O)NCc4ccco4)CC3)ccc2N1C(=O)C1CCC1 (centres undefined), the Potency is reported as active: 9.28 µM.
In the case of CCOc1cc2c(cc1OCC)C(C(=O)O)C(c1cc(OC)c(OC)c(OC)c1)N(C)C2=O (centres undefined), the Potency is reported as inconclusive [inhibitor, single point].
With CCc1ccc(O)c(N=Cc2ccccc2O)c1 the Potency was inconclusive [inhibitor, partial curve].
With O=S(=O)(Nc1ccccc1N1CCOCC1)c1ccc(Cl)s1 the Potency was inconclusive [inhibitor, partial curve, poor fit].
With O=C1NC(=O)C(CCc2ccncc2)(CCc2ccncc2)C(=O)N1CCc1ccccc1 the Potency was inconclusive [inhibitor, single point].
With CC(C)C(=O)Nc1c(C(=O)N2CCN(c3ncccn3)CC2)oc2ccccc12 the Potency was inconclusive [inhibitor, single point].
For O=C(C1=C[C@@H]2[C@H]3C(=O)N(c4ccccc4)C(=O)[C@H]3[C@@H](C(=O)c3ccc(Cl)cc3)N2C=C1)c1ccccc1, the Potency was inconclusive [inhibitor, partial curve].
With O=C(NCc1ccccc1)c1ccc[n+]([O-])c1 the Potency was inconclusive [inhibitor, single point].
With CCN(CC)CC(=O)Nc1ccc2c(c1)N(C(=O)CN(CC)CC)c1ccccc1CC2 the Potency was active: 10.4 µM.
In the case of Cc1c(NC(=O)CSCc2ccco2)c(=O)n(-c2ccccc2)n1C, the Potency is reported as “inactive”.
In the case of Cc1cc(Nc2ccc([N+](=O)[O-])cc2)c2ccccc2n1, the Potency is reported as inconclusive [inhibitor, single point].
In the case of CC(=O)Nc1ccc(NC(=O)C2CC(=O)N(c3ccc(Cl)cc3)C2)cc1 (centres undefined), the Potency is reported as inconclusive [inhibitor, partial curve, poor fit].
In the case of COc1ccccc1OCCn1ccnc1, the Potency is reported as inconclusive [inhibitor, single point].
In the case of CN(C(=O)c1ccco1)c1nnc(C23CC4CC(CC(C4)C2)C3)s1, the Potency is reported as inconclusive [inhibitor, single point].
With CC(C)(C)C(=O)NCCn1ccc2ccccc21 the Potency was inconclusive [inhibitor, single point].
In the case of O=C(c1ccco1)N1CCN(c2nc3ccccc3c(=O)n2-c2ccccc2)CC1, the Potency is reported as inconclusive [inhibitor, single point].
For CCOC(=O)COc1ccc2nsnc2c1, the Potency was “inactive”.
For CC1CC(C)CN(C(=O)Nc2ccccc2F)C1 (centres undefined), the Potency was “inactive”.
In the case of C/C(=N\NC(=O)c1cc(-c2ccc(Cl)s2)[nH]n1)c1ccncc1, the Potency is reported as inconclusive [inhibitor, single point].
In the case of CCOc1ncccc1C(=O)OCc1csc(CC(=O)Nc2ccccc2C)n1, the Potency is reported as inconclusive [inhibitor, single point].
In the case of COc1ccc(-c2ccc(C)cc2)cc1[C@H]1[C@H]2C=CC[C@@H](C)[C@@H]2C(=O)N1Cc1ccccc1, the Potency is reported as inconclusive [inhibitor, full curve, poor fit].
In the case of COc1ccc(C)cc1-n1nnnc1SCC(=O)N1CCC(C(=O)Nc2nccs2)CC1, the Potency is reported as “inactive”.
In the case of CC(NC(=S)Nc1c(Cl)cccc1OC(F)F)C(C)(C)C (centres undefined), the Potency is reported as “inactive”.
With COc1ccc(NC(=O)CSc2ccc3c4c(cccc24)C(=O)c2ccccc2-3)cc1 the Potency was inconclusive [inhibitor, partial curve].
For O=C(CSc1nnnn1Cc1ccccc1)c1ccc(F)cc1, the Potency was “inactive”.
In the case of COc1ccc(S(=O)(=O)N2N=C(c3cccc(NS(C)(=O)=O)c3)CC2c2ccco2)cc1 (centres undefined), the Potency is reported as “inactive”.
With CCC(C)n1c(/C=C/c2ccccc2)nc2ccccc21 (centres undefined) the Potency was inconclusive [inhibitor, partial curve, poor fit].
With C=CCOc1ccc(/C=N/NC(=O)c2c(C)nc3ccc(Cl)cn23)cc1 the Potency was inconclusive [inhibitor, partial curve, poor fit].
For CCOc1ccc(NC(=O)C(CC(=O)O)Cc2ccc(Br)cc2)cc1 (centres undefined), the Potency was “inactive”.
With C=C1CCN([C@H](C(=O)NCc2cc(OC)c(OC)c(OC)c2)C(C)C)S(=O)(=O)c2ccccc21 the Potency was inconclusive [inhibitor, single point].
In the case of COc1cc2[nH]c(=O)n(Cc3ccc(C(=O)NC4CCN(Cc5ccccc5)CC4)cc3)c(=O)c2cc1OC, the Potency is reported as active: 13.1 µM.
For COc1ccc(C(=O)/C=C/c2ccc(OC(=O)c3cc(OC)c(OC)c(OC)c3)cc2)cc1, the Potency was active: 2.94 µM.
With CCn1c(SCC(=O)N2CCc3ccccc32)nnc1-c1c[nH]c2ccccc12 the Potency was active: 9.28 µM.
In the case of CN(C)C(CNC(=O)c1cccc(S(=O)(=O)NCc2ccccc2)c1)c1ccccc1 (centres undefined), the Potency is reported as inconclusive [inhibitor, single point].
With C=CCc1cc(/C=C/c2nc(O)c([N+](=O)[O-])c(=O)[nH]2)cc(OC)c1O the Potency was inconclusive [inhibitor, single point].
In the case of Cc1nn(-c2ccc(F)cc2F)c2c1-c1nc(N3CCCC3)ncc1CC2, the Potency is reported as inconclusive [inhibitor, partial curve, poor fit].
With CC1C/C(=N/NC(=O)c2cccc(F)c2)c2ccc(O)cc2C1 (centres undefined) the Potency was “inactive”.
In the case of O=C(CC1C(=O)NCCN1Cc1c(F)cccc1Cl)NC1CCCC1 (centres undefined), the Potency is reported as “inactive”.
In the case of CC1CCCN(CC(O)COc2ccc(-c3ccccc3)cc2)C1 (centres undefined), the Potency is reported as inconclusive [inhibitor, single point].
For Cc1ccc(C(=O)N2CC(=O)Nc3ccc(F)cc3C2c2ccccc2)cc1[N+](=O)[O-] (centres undefined), the Potency was active: 9.28 µM.
